# Data as given in the antibiotic and cytotoxicity screens of Wong et al. (2023).
# This is one part of the list.
# Test system: HepG2
# Experiment: cytotoxicity call (relative viability < 0.9)
# Settings: 10 µM
row,SMILES,cytotoxicity call
1,C[C@H](CO)N1C[C@H](C)[C@@H](CN(C)S(=O)(=O)c2ccccc2)Oc2ccc(NS(=O)(=O)c3cccs3)cc2C1=O,inactive
2,Cc1c(C)n2c3c(=O)n(C)c(=O)n(C)c3nc2n1CCO,inactive
3,O=C(O)[C@@H]1CC(=O)N(Cc2cccnc2)C1,inactive
4,C[C@@H]1CCCCO[C@@H](CN(C)Cc2ccc3c(c2)OCO3)[C@@H](C)CN([C@H](C)CO)C(=O)c2cc(NC(=O)Cc3ccccc3)ccc2O1,inactive
5,CCC(=O)NCCN1CCN(C(=O)CC)CC1,inactive
6,C[C@@H]1CN([C@H](C)CO)C(=O)c2cc(NC(=O)C3CC3)ccc2O[C@H]1CN(C)Cc1ccc(Oc2ccccc2)cc1,inactive
7,CC(C)NC(=O)N(C)C[C@H]1Oc2ccc(NS(=O)(=O)c3ccccc3)cc2C(=O)N([C@H](C)CO)C[C@H]1C,inactive

# Test system: S. aureus RN4220
# Experiment: growth inhibition call (relative growth <= 0.2)
# Settings: 50 µM
row,SMILES,growth inhibition call
1,COCC(=O)N[C@@H]1C=C[C@@H](CC(=O)N2CCCCC2)O[C@@H]1CO,inactive
2,CN1C(=O)c2cc(NC(=O)Nc3cccc(C#N)c3)ccc2OC[C@H]2O[C@@H](CC(=O)Nc3ccc4c(c3)CCC4)CC[C@@H]21,inactive
3,C[C@H]1CN([C@@H](C)CO)C(=O)c2cc(NC(=O)CCN3CCOCC3)ccc2O[C@H]1CN(C)S(=O)(=O)c1cccs1,inactive
4,C[C@H](CO)N1C[C@H](C)[C@@H](CN(C)C(=O)Nc2ccc(F)cc2)OCCCC[C@H](C)Oc2ccc(NS(=O)(=O)c3cccs3)cc2C1=O,inactive
5,C[C@H]1CCCCO[C@@H](CN(C)C(=O)Nc2ccc(C(F)(F)F)cc2)[C@@H](C)CN([C@@H](C)CO)C(=O)c2cc(NS(=O)(=O)c3ccc(F)cc3)ccc2O1,inactive
6,C[C@H](CO)N1C[C@H](C)[C@H](CN(C)S(=O)(=O)c2cccs2)Oc2c(NC(=O)C3CC3)cccc2C1=O,inactive
7,C[C@H](CO)N1C[C@H](C)[C@@H](CN(C)C(=O)Nc2cccc3ccccc23)Oc2c(NC(=O)Nc3ccc(C(F)(F)F)cc3)cccc2C1=O,active
8,Cc1noc(C)c1NC(=O)Nc1ccc2c(c1)C(=O)N([C@H](C)CO)C[C@@H](C)[C@@H](CN(C)Cc1ccc(Cl)c(Cl)c1)O2,inactive
9,COc1ccc(CC[C@@H](OC(=O)[C@H]2CCCCN2C(=O)Cc2ccccc2)c2cccc(OCC(=O)O)c2)cc1OC,inactive
10,CC(C)N(C[C@H]1O[C@@H](n2cnc3c(N)ncnc32)[C@H](O)[C@@H]1O)[C@H]1C[C@@H](CCc2nc3ccc(C(C)(C)C)cc3[nH]2)C1,inactive
11,N=C(N)N,inactive
12,CC(=O)N[C@@H](CCCNC(=N)N)C(=O)N[C@H]1CSSC[C@@H](C(N)=O)NC(=O)[C@H](Cc2c[nH]c3ccccc23)NC(=O)[C@H](CCCNC(=N)N)NC(=O)[C@@H](Cc2ccccc2)NC(=O)[C@H](Cc2cnc[nH]2)NC(=O)[C@@H](C)NC1=O,inactive
13,CC(C)NC(=O)N(C)C[C@H]1Oc2cc(-c3ccccc3F)ccc2S(=O)(=O)N([C@H](C)CO)C[C@@H]1C,inactive
14,NCC[C@H]1CC[C@@H](NC(=O)c2ccccc2F)[C@@H](CO)O1,inactive
15,C[C@H](O)C#Cc1ccc2c(c1)O[C@H](CN(C)C(=O)CN(C)C)[C@H](C)CN([C@H](C)CO)S2(=O)=O,inactive
16,Cc1noc(C)c1NC(=O)N(C)C[C@@H]1OCCCC[C@@H](C)Oc2ccc(NC(=O)C3CCCCC3)cc2C(=O)N([C@H](C)CO)C[C@H]1C,inactive
17,C[C@@H]1CN([C@@H](C)CO)C(=O)c2cccc(NC(=O)Nc3ccccc3)c2O[C@H]1CN(C)Cc1ccc(C(=O)Nc2ccccc2N)cc1,inactive
18,C[C@H]1CCCCO[C@H](CN(C)C(=O)Nc2ccccc2)[C@@H](C)CN([C@@H](C)CO)C(=O)c2cc(NC(=O)C3CCCCC3)ccc2O1,inactive
19,CC(C)NC(=O)Nc1cccc2c1O[C@H](CN(C)Cc1ccc(Oc3ccccc3)cc1)[C@@H](C)CN([C@H](C)CO)C2=O,inactive
20,C[C@@H]1CN([C@H](C)CO)C(=O)Cc2cc(NC(=O)Cc3ccccc3)ccc2O[C@@H]1CN(C)Cc1ccc(-c2ccccc2)cc1,inactive

row,SMILES,growth inhibition call
1,C#CCN(O[C@@H](/C=C/[C@@H](O)CCn1cc(-c2cccc(/C=C/C(=O)NO)c2)nn1)C1CC1)[C@@H](Cc1ccccc1)C(=O)OC,inactive
2,C[C@@H]1CN([C@H](C)CO)C(=O)c2cc(NC(=O)Nc3ccc(F)cc3)ccc2O[C@@H](C)CCCCO[C@@H]1CN(C)C(=O)CCCN(C)C,inactive
3,CCCN(C)C[C@H]1OCCCC[C@@H](C)Oc2ccc(NC(=O)c3ccccc3)cc2C(=O)N([C@H](C)CO)C[C@@H]1C,inactive
4,CCCCCc1ccccn1,inactive
5,Cc1ccc(S(=O)(=O)Nc2ccc3c(c2)C(=O)N([C@@H](C)CO)C[C@@H](C)[C@@H](CN(C)C(=O)Nc2c(C)noc2C)OCCCC[C@@H](C)O3)cc1,inactive
6,COc1ccc(S(=O)(=O)N(C)C[C@H]2Oc3ccc(NS(=O)(=O)c4ccc(F)cc4)cc3C(=O)N([C@H](C)CO)C[C@@H]2C)cc1,inactive
7,C[C@H]1CN([C@@H](C)CO)C(=O)c2cccc(NC(=O)c3cnccn3)c2O[C@@H]1CN(C)C(=O)Nc1ccc2c(c1)OCO2,inactive
8,C[C@@H]1CCCCO[C@@H](CN(C)Cc2ccc(Cl)c(Cl)c2)[C@H](C)CN([C@@H](C)CO)C(=O)c2cc(NC(=O)Cc3ccccc3)ccc2O1,inactive
9,CO[C@H]1/C=C/C[C@H](C)[C@@H](C)S(=O)(=O)NC(=O)c2ccc3c(c2)N(C[C@@H]2CC[C@H]21)C[C@@]1(CCCc2cc(Cl)ccc21)CO3,inactive
10,CCS(=O)(=O)N1CC[C@]2(CC1)CN([C@@H](CO)c1c2c2ccc(cc2n1C)OC)C(=O)c1cccc(c1)F,inactive
11,Cc1c(-c2ccccc2)n(C[C@@H](O)CN)c2ccccc12,inactive
12,C[C@@H]1CN([C@@H](C)CO)C(=O)c2cc(NS(=O)(=O)c3ccc(F)cc3)ccc2O[C@@H](C)CCCCO[C@H]1CN(C)C(=O)Nc1ccc(F)cc1,inactive
13,COC(=O)C1=C[C@@H](O)[C@@H](O)[C@H](O[C@@H]2O[C@H](COC(=O)/C=C/c3ccccc3)[C@@H](O)[C@H](O)[C@H]2O)C1,inactive
14,C[C@H](CO)N1C[C@H](C)[C@@H](CN(C)S(=O)(=O)c2ccccc2)Oc2ccc(NS(=O)(=O)c3cccs3)cc2C1=O,inactive
15,Cc1c(C)n2c3c(=O)n(C)c(=O)n(C)c3nc2n1CCO,inactive
16,O=C(O)[C@@H]1CC(=O)N(Cc2cccnc2)C1,inactive
17,C[C@@H]1CCCCO[C@@H](CN(C)Cc2ccc3c(c2)OCO3)[C@@H](C)CN([C@H](C)CO)C(=O)c2cc(NC(=O)Cc3ccccc3)ccc2O1,inactive
18,CCC(=O)NCCN1CCN(C(=O)CC)CC1,inactive
19,C[C@@H]1CN([C@H](C)CO)C(=O)c2cc(NC(=O)C3CC3)ccc2O[C@H]1CN(C)Cc1ccc(Oc2ccccc2)cc1,inactive
20,CC(C)NC(=O)N(C)C[C@H]1Oc2ccc(NS(=O)(=O)c3ccccc3)cc2C(=O)N([C@H](C)CO)C[C@H]1C,inactive
